These results are taken from paper PMC9911399, “Two distinct binding modes provide the RNA-binding protein RbFox with extraordinary sequence specificity”.

Residue numbers refer to the chain shown, from its start. The list shows a part of the results.

The labels stand for the following.
T1: RBFOX1 RRM RbFoxmut (Fox-RRM*) (Homo sapiens, UniProt Q9NWB1 109-208, R118D;E147R;N151S;E152T)
T1 sequence: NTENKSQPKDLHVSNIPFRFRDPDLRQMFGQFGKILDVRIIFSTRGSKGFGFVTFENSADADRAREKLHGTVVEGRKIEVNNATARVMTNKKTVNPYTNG

B1: GGCGACC (DNA:RNA)
RNA: GGGAGACCGGAAUUCAGAUUGUCCGGCGACCUUAAAUCCCGUCGUAGCCACCA
DNA 1: CAATCTGAATTCCGGTCTCCC
DNA 2: TGGTGGCTACGACGGGATT
B2: GCCGGUG (DNA:RNA)
RNA: B1 RNA with G26C, A29G, C30U, C31G
DNA 1: CAATCTGAATTCCGGTCTCCC
DNA 2: TGGTGGCTACGACGGGATT
B3: UAACAGA (DNA:RNA)
RNA: B1 RNA with G25U, G26A, C27A, G28C, C30G, C31A
DNA 1: CAATCTGAATTCCGGTCTCCC
DNA 2: TGGTGGCTACGACGGGATT
B4: GAAACAA (DNA:RNA)
RNA: B1 RNA with G26A, C27A, G28A, A29C, C30A, C31A
DNA 1: CAATCTGAATTCCGGTCTCCC
DNA 2: TGGTGGCTACGACGGGATT
B5: CAACAUC (DNA:RNA)
RNA: B1 RNA with G25C, G26A, C27A, G28C, C30U
DNA 1: CAATCTGAATTCCGGTCTCCC
DNA 2: TGGTGGCTACGACGGGATT
B6: UAUGCCA (DNA:RNA)
RNA: B1 RNA with G25U, G26A, C27U, A29C, C31A
DNA 1: CAATCTGAATTCCGGTCTCCC
DNA 2: TGGTGGCTACGACGGGATT
B7: AGAUUAC (DNA:RNA)
RNA: B1 RNA with G25A, C27A, G28U, A29U, C30A
DNA 1: CAATCTGAATTCCGGTCTCCC
DNA 2: TGGTGGCTACGACGGGATT
B8: CAAGUAA (DNA:RNA)
RNA: B1 RNA with G25C, G26A, C27A, A29U, C30A, C31A
DNA 1: CAATCTGAATTCCGGTCTCCC
DNA 2: TGGTGGCTACGACGGGATT
B9: UAUAAAA (DNA:RNA)
RNA: B1 RNA with G25U, G26A, C27U, G28A, C30A, C31A
DNA 1: CAATCTGAATTCCGGTCTCCC
DNA 2: TGGTGGCTACGACGGGATT
B10: GGUGAAU (DNA:RNA)
RNA: B1 RNA with C27U, C30A, C31U
DNA 1: CAATCTGAATTCCGGTCTCCC
DNA 2: TGGTGGCTACGACGGGATT
B11: UAUCUCC (DNA:RNA)
RNA: B1 RNA with G25U, G26A, C27U, G28C, A29U
DNA 1: CAATCTGAATTCCGGTCTCCC
DNA 2: TGGTGGCTACGACGGGATT
B12: AGUGUGC (DNA:RNA)
RNA: B1 RNA with G25A, C27U, A29U, C30G
DNA 1: CAATCTGAATTCCGGTCTCCC
DNA 2: TGGTGGCTACGACGGGATT
B13: UGCCGUG (DNA:RNA)
RNA: B1 RNA with G25U, G28C, A29G, C30U, C31G
DNA 1: CAATCTGAATTCCGGTCTCCC
DNA 2: TGGTGGCTACGACGGGATT
B14: GUAACAA (DNA:RNA)
RNA: B1 RNA with G26U, C27A, G28A, A29C, C30A, C31A
DNA 1: CAATCTGAATTCCGGTCTCCC
DNA 2: TGGTGGCTACGACGGGATT
B15: CUGUGUA (DNA:RNA)
RNA: GGGAGACCGGAAUUCAGAUUGUCCCUGUGUAUUAAAUCCCGUCGUAGCCACCA
DNA 1: CAATCTGAATTCCGGTCTCCC
DNA 2: TGGTGGCTACGACGGGATT
B16: CCUGGGG (DNA:RNA)
RNA: B15 RNA with U26C, G27U, U28G, U30G, A31G
DNA 1: CAATCTGAATTCCGGTCTCCC
DNA 2: TGGTGGCTACGACGGGATT
B17: UCCAUCU (DNA:RNA)
RNA: B1 RNA with G25U, G26C, G28A, A29U, C31U
DNA 1: CAATCTGAATTCCGGTCTCCC
DNA 2: TGGTGGCTACGACGGGATT
B18: AAGGUAA (DNA:RNA)
RNA: B15 RNA with C25A, U26A, U28G, G29U, U30A
DNA 1: CAATCTGAATTCCGGTCTCCC
DNA 2: TGGTGGCTACGACGGGATT
B19: CCAGUAG (DNA:RNA)
RNA: B15 RNA with U26C, G27A, U28G, G29U, U30A, A31G
DNA 1: CAATCTGAATTCCGGTCTCCC
DNA 2: TGGTGGCTACGACGGGATT
B20: UUAAAAC (DNA:RNA)
RNA: B1 RNA with G25U, G26U, C27A, G28A, C30A
DNA 1: CAATCTGAATTCCGGTCTCCC
DNA 2: TGGTGGCTACGACGGGATT
B21: AUUAUAA (DNA:RNA)
RNA: B15 RNA with C25A, G27U, U28A, G29U, U30A
DNA 1: CAATCTGAATTCCGGTCTCCC
DNA 2: TGGTGGCTACGACGGGATT
B22: GGUAUAA (DNA:RNA)
RNA: B1 RNA with C27U, G28A, A29U, C30A, C31A
DNA 1: CAATCTGAATTCCGGTCTCCC
DNA 2: TGGTGGCTACGACGGGATT
B23: CAGUGCA (DNA:RNA)
RNA: B15 RNA with U26A, U30C
DNA 1: CAATCTGAATTCCGGTCTCCC
DNA 2: TGGTGGCTACGACGGGATT
B24: UUAGCAU (DNA:RNA)
RNA: B15 RNA with C25U, G27A, U28G, G29C, U30A, A31U
DNA 1: CAATCTGAATTCCGGTCTCCC
DNA 2: TGGTGGCTACGACGGGATT
B25: GCACUUG (DNA:RNA)
RNA: B15 RNA with C25G, U26C, G27A, U28C, G29U, A31G
DNA 1: CAATCTGAATTCCGGTCTCCC
DNA 2: TGGTGGCTACGACGGGATT
B26: CUAGCAC (DNA:RNA)
RNA: B15 RNA with G27A, U28G, G29C, U30A, A31C
DNA 1: CAATCTGAATTCCGGTCTCCC
DNA 2: TGGTGGCTACGACGGGATT
B27: CCGACUG (DNA:RNA)
RNA: B15 RNA with U26C, U28A, G29C, A31G
DNA 1: CAATCTGAATTCCGGTCTCCC
DNA 2: TGGTGGCTACGACGGGATT
B28: CCCACAG (DNA:RNA)
RNA: B15 RNA with U26C, G27C, U28A, G29C, U30A, A31G
DNA 1: CAATCTGAATTCCGGTCTCCC
DNA 2: TGGTGGCTACGACGGGATT
B29: UCCCGCA (DNA:RNA)
RNA: B15 RNA with C25U, U26C, G27C, U28C, U30C
DNA 1: CAATCTGAATTCCGGTCTCCC
DNA 2: TGGTGGCTACGACGGGATT
B30: GUAAUUA (DNA:RNA)
RNA: B15 RNA with C25G, G27A, U28A, G29U
DNA 1: CAATCTGAATTCCGGTCTCCC
DNA 2: TGGTGGCTACGACGGGATT
B31: UGGGAAG (DNA:RNA)
RNA: B1 RNA with G25U, C27G, C30A, C31G
DNA 1: CAATCTGAATTCCGGTCTCCC
DNA 2: TGGTGGCTACGACGGGATT

In this assay the target is T1, RBFOX1 RRM RbFoxmut (Fox-RRM*). The experiment in a line: EMSA; HiTS-Eq, 1 nM pool, 10 min; buffer printed only for the single-RNA assays: 10 mM Tris pH 7.5, 150 mM NaCl, 3.4 mM EDTA, 0.001% NP-40, 30 C. Particulars: tags: His6 N-terminal (pET28a); label: 5' 32P. The method in brief: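 Purified wild-type or mutant RbFox RRM at increasing concentrations was equilibrated with 1 nM of 5′-radiolabelled RNA carrying 7 randomized nucleotides for 10 min in 50 µL. Unbound RNA was separated by 8% native PAGE and sequenced. Relative association constants came from read-count changes of each RNA species compared with the control reaction, normalised to the cognate motif.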
On to B1, for which the binding signal is 0.1 KA relative to UGCAUGU.
To B2 belongs 0.112 KA relative to UGCAUGU; to B3, 0.0377 KA relative to UGCAUGU.
For B4, the binding signal is 0.0537 KA relative to UGCAUGU.
On to B5, for which the binding signal was 0.0476 KA relative to UGCAUGU.
As for B6, the binding signal is 0.0821 KA relative to UGCAUGU.
To B7 belongs 0.105 KA relative to UGCAUGU.
Next, B8: 0.112 KA relative to UGCAUGU.
Next, B9: 0.0497 KA relative to UGCAUGU.
Regarding B10, the binding signal was 0.0936 KA relative to UGCAUGU.
To B11 belongs 0.0612 KA relative to UGCAUGU.
B12: the binding signal is 0.159 KA relative to UGCAUGU.
Next, B13: 0.185 KA relative to UGCAUGU; B14: 0.0914 KA relative to UGCAUGU.
With B15, the binding signal is 0.281 KA relative to UGCAUGU.
In the case of B16, the binding signal was 0.0659 KA relative to UGCAUGU.
For B17, the binding signal was 0.077 KA relative to UGCAUGU.
To B18 belongs 0.122 KA relative to UGCAUGU.
To B19 belongs 0.154 KA relative to UGCAUGU; to B20, 0.0741 KA relative to UGCAUGU; to B21, 0.13 KA relative to UGCAUGU.
To B22 belongs 0.106 KA relative to UGCAUGU.
As to B23, the binding signal is 0.17 KA relative to UGCAUGU.
To B24 belongs 0.103 KA relative to UGCAUGU; to B25, 0.113 KA relative to UGCAUGU.
Next, B26: 0.0787 KA relative to UGCAUGU; B27: 0.139 KA relative to UGCAUGU.
As for B28, the binding signal was 0.106 KA relative to UGCAUGU.
Next, B29: 0.0862 KA relative to UGCAUGU; B30: 0.127 KA relative to UGCAUGU; B31: 0.136 KA relative to UGCAUGU.
